Test results as given in patent US20210269542A1 (published 2021).

What was measured:
[1] = target: T1, human GITR expressed on cells (UniProt Q9Y5U5 26-241); assay: FACS, inhibition of ABP1-Dylight650 staining on CD4+ T cells; Donor 1
T1 chain: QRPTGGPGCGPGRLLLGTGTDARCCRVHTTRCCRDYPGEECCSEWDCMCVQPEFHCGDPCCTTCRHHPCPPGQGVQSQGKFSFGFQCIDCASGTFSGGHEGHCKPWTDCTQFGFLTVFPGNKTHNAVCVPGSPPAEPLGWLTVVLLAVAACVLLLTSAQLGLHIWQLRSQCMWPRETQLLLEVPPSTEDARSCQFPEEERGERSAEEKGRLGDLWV

[2] = target: T1, human GITR expressed on cells; assay: FACS, inhibition of ABP1-Dylight650 staining on CD8+ T cells; Donor 2
[3] = target: T1, human GITR expressed on cells; assay: FACS, inhibition of ABP1-Dylight650 staining on CD8+ T cells; Donor 1
[4] = target: T1, human GITR expressed on cells; assay: FACS, inhibition of ABP1-Dylight650 staining on CD4+ T cells; Donor 2

B1: ABP1 (antibody)
heavy: QVQLQESGPGLVKPSETLSLTCAVSGYSISSGLGWGWIRQPPGKGLEWIGGIYESGSTYYNPSLKSRVTISVDTSKNQFSLKLSSVTAADTAVYYCAHERVRGYGDYGGHHAFDIWGQGTMVTVSSASTKGPSVFPLAPSSKSTSGGTAALGCLVKDYFPEPVTVSWNSGALTSGVHTFPAVLQSSGLYSLSSVVTVPSSSLGTQTYICNVNHKPSNTKVDKRVEPKSCGGGGSQVQLQESGPGLVKPSETLSLTCAVSGYSISSGLGWGWIRQPPGKGLEWIGGIYESGSTYYNPSLKSRVTISVDTSKNQFSLKLSSVTAADTAVYYCAHERVRGYGDYGGHHAFDIWGQGTMVTVSSASTKGPSVFPLAPCSRSTSESTAALGCLVKDYFPEPVTVSWNSGALTSGVHTFPAVLQSSGLYSLSSVVTVPSSSLGTKTYTCNVDHKPSNTKVDKRV[human IgG4 Fc with S228P (EU numbers) left out]
light: [about 100 residues left out][about 120 residues left out]
EC50 [1]: 0.0512 nM
EC50 [2]: 0.0136 nM
EC50 [3]: 0.0528 nM
EC50 [4]: 0.0355 nM
